{"source": "the supplement of paper PMC11417369", "note": "± gives the standard deviation of the averaged measurements. Some of the results follow.", "data": [{"test_system": "PfAP2-G AP2 domain (GST-tagged)", "test": "gcPBM binding intensity (ln(normalized median fluorescence intensity)); higher = stronger DNA binding", "procedure,_shortened": "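The binding buffer was 1× PBS containing 1% milk, 0.2 mg/ml BSA, 0.5% salmon testes DNA and 0.03% Triton X-100. In it, GST-tagged P. falciparum DNA-binding domains expressed in E. coli were applied for 1 h to an Agilent 4 × 180k array of primer-extended double-stranded 36-bp intergenic genomic probes plus negative controls. Binding intensity, read with Alexa488 anti-GST antibody and a 488 nm scan, is the highest Masliner-normalised natural-log median intensity across replicate spots of either probe orientation.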", "values": [{"sequence": "TAAATCCTTTACAACACACACACAAAAAAAAAAAAA [CACACA_site643]", "gcPBM binding intensity (ln)": "10 ± 0.61"}, {"sequence": "GATATTCTATAAAAAAGTACAAATATTTTAAAAAAT [XGTACX_site2177]", "gcPBM binding intensity (ln)": "11.3 ± 0.94"}, {"sequence": "AACAACAACTAATATGCACACATTTAAAAACAAAAT [CACACA_site2440]", "gcPBM binding intensity (ln)": "10.3 ± 0.36"}, {"sequence": "TATTTTTTTTTTTTTTTACACACTATAGGGAAAAAA [CACACA_site8583]", "gcPBM binding intensity (ln)": "10 ± 0.3"}, {"sequence": "ATTAAAATTTAAAATACACACACATATATATAATAT [CACACA_site8612]", "gcPBM binding intensity (ln)": 10.1}, {"sequence": "TAAAATGTACAGGACGCACACACATATATATATATA [CACACA_site3673]", "gcPBM binding intensity (ln)": "11.2 ± 0.78"}, {"sequence": "TTTTTTTTTTTTCATTGTACTCTTAAAAATTCAACT [XGTACX_site3154]", "gcPBM binding intensity (ln)": "11.4 ± 1.2"}, {"sequence": "TTATAATGAAATATATTCTTATTCTTTTTTTTTTTT [GTGCAC_negctrl_site384]", "gcPBM binding intensity (ln)": "9.47 ± 0.028"}, {"sequence": "GGAGACTTTGTATTGGGTACGTATTTCAATGCATGT [XGTACX_site1596]", "gcPBM binding intensity (ln)": "11.3 ± 0.85"}, {"sequence": "GCTTCTTAATATCATACACACATAGATATATTTATA [CACACA_site5676]", "gcPBM binding intensity (ln)": "9.925 ± 0.078"}, {"sequence": "ACGAATTAAATTTGCTGTACCAAAAAGAAAACAATA [XGTACX_site5511]", "gcPBM binding intensity (ln)": "10.9 ± 0.53"}, {"sequence": "CATACATACATACATACACACACATATATATATATA [CACACA_site8593]", "gcPBM binding intensity (ln)": "10.7 ± 0.49"}, {"sequence": "AAACCTTTACATCGTTTGCACTATATTGATATGTGT [GTGCAC_site9686]", "gcPBM binding intensity (ln)": "9.91 ± 0.11"}, {"sequence": "TTTTTTAACAAAAATAAAACATAACTGAATTAAAAG [GTGCAC_negctrl_site244]", "gcPBM binding intensity (ln)": "10 ± 0.11"}, {"sequence": "CTTCCTATATTTTACTGTACTTTTTTTTTTTTTTTT [XGTACX_site4016]", "gcPBM binding intensity (ln)": "11.7 ± 0.98"}, {"sequence": "ATATATAAGGAAAAAAGTACTTATATTTTTTTTTTG [XGTACX_site1909]", "gcPBM binding intensity (ln)": "11.1 ± 0.61"}, {"sequence": "TTTATGTGTATTAAGTGTACACATATAGTGTATTTT [XGTACX_site999]", "gcPBM binding intensity (ln)": "11.6 ± 1.1"}, {"sequence": "GAAAACATAAAAATATGTACTTAAAATATATTTTGT [XGTACX_site868]", "gcPBM binding intensity (ln)": "11.2 ± 0.85"}, {"sequence": "AAAACGAAACATCTGTGTATAAGTCTATATTATTAT [XGTACX_negctrl_site301]", "gcPBM binding intensity (ln)": "9.79 ± 0.12"}, {"sequence": "AACAAATGTTAAATGTTTAAGGAGAAAATAAAGACA [CACACA_negctrl_site1163]", "gcPBM binding intensity (ln)": "10 ± 0.11"}, {"sequence": "TGTCATGATACATACACACACATACCCATACCCATA [CACACA_site5211]", "gcPBM binding intensity (ln)": "10.5 ± 0.33"}, {"sequence": "AAATAAAGCATGTGCTGTACAAACGAAATATTTAAG [XGTACX_site3146]", "gcPBM binding intensity (ln)": "10.8 ± 0.12"}, {"sequence": "AACTAATTCATGTTATATTAGATAAAAAAAAAAAAA [TGCATGCA_negctrl_site340]", "gcPBM binding intensity (ln)": "9.76 ± 0.37"}, {"sequence": "ATCAATACTTTTTTGGGTACATAAATATATATATAT [XGTACX_site8436]", "gcPBM binding intensity (ln)": "11.4 ± 0.83"}, {"sequence": "ATATTTTTTAATTTTACACACCATATAAAATAATTC [CACACA_site7339]", "gcPBM binding intensity (ln)": "10.04 ± 0.078"}, {"sequence": "AAATATATTATATGTACACACAAAATTAAGGGATAT [CACACA_site1375]", "gcPBM binding intensity (ln)": "11.4 ± 0.79"}, {"sequence": "GTGTTTGAAAATAAAGCATGCAAATATATTTGAAAT [TGCATGCA_site386]", "gcPBM binding intensity (ln)": "9.82 ± 0.099"}, {"sequence": "ATAAGATTATACAATTGTACGTTGTTCAAGATAAGG [XGTACX_site191]", "gcPBM binding intensity (ln)": "11 ± 0.73"}, {"sequence": "TTTTTTTTGTTCATTGTGCACATTGCTTGCATGGAA [GTGCAC_site9693]", "gcPBM binding intensity (ln)": "10.5 ± 0.52"}, {"sequence": "AAAATAATAAATAAATGTACATATATATATATATAT [XGTACX_site3078]", "gcPBM binding intensity (ln)": "10.9 ± 0.24"}, {"sequence": "ATTATTATTATATTTTGTACATATGTAACAATATAT [XGTACX_site5780]", "gcPBM binding intensity (ln)": "10.9 ± 0.45"}, {"sequence": "TCTAACATATAATATTCACACACATATATATATTAT [CACACA_site8236]", "gcPBM binding intensity (ln)": "10 ± 0.16"}, {"sequence": "TGGTTTCAATAATTAATAAAATATATTATTGTGAAA [CACACA_negctrl_site442]", "gcPBM binding intensity (ln)": "9.625 ± 0.049"}, {"sequence": "ATAATATATTTATAATGTACAAACCATTTGTATTAA [XGTACX_site4370]", "gcPBM binding intensity (ln)": "10.6 ± 0.36"}, {"sequence": "AAAAAATGACTTAATATGAGCATATATTATGTTGTT [CACACA_negctrl_site1609]", "gcPBM binding intensity (ln)": "9.675 ± 0.049"}, {"sequence": "AAAATATAAAAATGAAGTACAAAAAAAAAAAAAAAA [XGTACX_site8132]", "gcPBM binding intensity (ln)": "11.3 ± 1.1"}, {"sequence": "GTTATACACATCAACACACACATACAACGTGGTGTA [CACACA_site6677]", "gcPBM binding intensity (ln)": "10.03 ± 0.035"}, {"sequence": "TAAATATGTGTATGTAGTACATAGTGTTTTTTTTTT [XGTACX_site3748]", "gcPBM binding intensity (ln)": "11.4 ± 0.76"}, {"sequence": "ATATTATGAATTGTCACACATATATTTAAAAATGTA [CACACA_site4852]", "gcPBM binding intensity (ln)": "10.01 ± 0.049"}, {"sequence": "TGCATATTACTTTTTCACATAAAAATGATCCGATTA [GTGCAC_negctrl_site526]", "gcPBM binding intensity (ln)": "9.94 ± 0.057"}, {"sequence": "TTTTTTTTTTTTTTTTTTTTACCCCTTTTTCAAAAA [CACACA_negctrl_site1524]", "gcPBM binding intensity (ln)": "9.88 ± 0.45"}, {"sequence": "AAAACATTGTTTATGTGTACATAATTATATTTACAA [XGTACX_site6926]", "gcPBM binding intensity (ln)": "11.4 ± 0.86"}, {"sequence": "CATTAAAATTGAGAGATGCACTTTTTAAGACCTTGT", "gcPBM binding intensity (ln)": "10.3 ± 0.35"}, {"sequence": "AAAAAAAATTAAATAAATAAATATACACATATATAT [GTGCAC_negctrl_site394]", "gcPBM binding intensity (ln)": "9.47 ± 0.26"}]}]}
